Source: PubChem BioAssay AID1814 (Broad Institute, 2009)
The campaign covered roughly 300,000 compounds. About 22,000 (7.3%) were called active. Inconclusive results, whose numbers are uncertain, are shown with a selection of clear calls. Cut-off read from the data, not from the text of the source: active = activity score below about -60%; inconclusive = mostly about -28% to -61%; inactive = positive scores.

Experiment: Activators via SNCA 5'UTR binding, MLPCN (AID 1814)
Settings: alpha-synuclein 5'UTR reporter, activators screen; active compounds read low; tested at 7.5 µM

Q: Which activity score does the source give for `COC(=O)c1cccc(NC(=O)c2onc3c2CCCC3)c1` here?
A: inactive: 78.7%

Q: With `CCOC(=O)c1nc(NNC(=O)c2ccc([N+](=O)[O-])cc2)sc1C` as the molecule, how does the activity score read?
A: inactive: 62%

Q: With `O=C(Nc1ncc(Cc2ccc(SC(F)F)cc2)s1)c1ccccc1` as the molecule, how does the activity score read?
A: inactive: 67.7%

Q: With `Cc1ccc(NC2CC(C)NC(=S)N2)cc1` (centres undefined) as the molecule, how does the activity score read?
A: inconclusive: -44.6%

Q: With `O=C(CNc1ccc2c(c1)OCO2)N/N=C\c1cn(Cc2ccccc2)c2ccccc12` as the molecule, how does the activity score read?
A: inactive: 81.2%

Q: With `Clc1ccc(-c2csc(N3CCSCC3)n2)cc1` as the molecule, how does the activity score read?
A: inconclusive: -55.4%

Q: For `CC(C)OCCCNC(=O)NC12CC3CC(CC(C3)C1)C2`, which activity score is on record?
A: inconclusive: -43.4%

Q: Which activity score does the source give for `CCn1c(=O)cc(SCC(=O)NCc2ccccn2)c2ccccc21` here?
A: inconclusive: -42.5%

Q: With `Cc1ccc(NC(=O)c2cc(-c3ccc4c(c3)OCO4)on2)cc1C` as the molecule, how does the activity score read?
A: inconclusive: -60.7%

Q: With `CC1CC(=O)c2c(cc3c(-c4c(O)cc(O)c5c(O)c6c(cc45)OC(C)CC6=O)c(O)cc(O)c3c2O)O1` (centres undefined) as the molecule, how does the activity score read?
A: inactive: 70.2%

Q: Which activity score does the source give for `O=C(Nc1cccc2ccccc12)C12CC3CC(C1)CC(n1cnc([N+](=O)[O-])n1)(C3)C2` here?
A: inactive: 73%

Q: With `Nc1c(C(=O)Nc2cccc(C(=O)O)c2)sc2nc3c(cc12)CCCC3` as the molecule, how does the activity score read?
A: inactive: 76.6%

Q: For `C/C(=N\NC(=O)c1ccccc1)c1ccc(NC(=O)c2cccs2)cc1`, which activity score is on record?
A: active: -108%

Q: For `COc1ccc(C(=O)c2ccc(N(C)C)cc2)c2ccccc12`, which activity score is on record?
A: inactive: 73.8%

Q: For `COc1ccc(NC(=O)Nc2nnc(-c3ccco3)s2)cc1`, which activity score is on record?
A: active: -108%

Q: With `O=C(O)c1ccc(N/N=C/c2c[nH]c3ccccc23)cc1` as the molecule, how does the activity score read?
A: inactive: 78.6%

Q: With `COc1cc(-c2onc3ccc(Br)cc23)cc(OC)c1OC` as the molecule, how does the activity score read?
A: inactive: 66.5%

Q: With `COc1ccccc1NC(=O)Nc1ccc(F)c(F)c1` as the molecule, how does the activity score read?
A: active: -66.1%

Q: For `Cc1ccc(C(=O)N2C(=O)C(c3ccccc3)Oc3ccccc32)cc1` (centres undefined), which activity score is on record?
A: inactive: 92.8%

Q: Which activity score does the source give for `Cc1c(N/N=C(\C#N)C(=O)c2ccc(Cl)cc2)c(=O)n(-c2ccccc2)n1C` here?
A: inactive: 86.3%

Q: Which activity score does the source give for `CCOc1cccc(/C=N/NC(=S)Nc2cc(S(=O)(=O)N3CCOCC3)ccc2N2CCOCC2)c1O` here?
A: inactive: 80.8%

Q: With `CC(C)(C)c1cnnn1-c1ccc(C=O)cc1` as the molecule, how does the activity score read?
A: inconclusive: -53.3%

Q: For `COc1cccc(CN2CC(C(=O)N(C)Cc3ccc(C)cc3)CCC2=O)c1` (centres undefined), which activity score is on record?
A: inconclusive: -55.5%

Q: Which activity score does the source give for `OC(c1cc(-c2ccc(C(F)(F)F)cc2)nc(C(F)(F)F)c1)C1CCCCN1` (centres undefined) here?
A: inactive: 103%

Q: Which activity score does the source give for `CCc1ccc(NC(=S)NNC(=O)c2ccccc2OC(F)F)cc1` here?
A: inconclusive: -44.7%

Q: With `COc1ccc2oc(=N)c(C(=O)Nc3ccc(Br)cc3)cc2c1` as the molecule, how does the activity score read?
A: inconclusive: -48.2%

Q: Which activity score does the source give for `O=C1NC(=O)/C(=C\c2ccc(OCc3cccc(C(=O)O)c3)c(Cl)c2)N1` here?
A: inactive: 69.9%

Q: Which activity score does the source give for `CN(C)c1ccc(CNn2cnnc2SCc2ccccc2F)cc1` here?
A: inconclusive: -60%

Q: With `COc1ccc2cc3cc(C(=O)NC4CC4)sc3nc2c1` as the molecule, how does the activity score read?
A: inactive: 56.7%

Q: Which activity score does the source give for `Nc1nc(-c2cccc(Br)c2)cs1` here?
A: inconclusive: -43.2%

Q: For `COc1ccc(C(=O)Nc2cc(C(C)=O)c(C)oc2=O)cc1`, which activity score is on record?
A: inconclusive: -60.4%

Q: For `COc1ccc2c(Cl)c(C(=O)N/N=C3\CCCC(=O)C3)sc2c1`, which activity score is on record?
A: inconclusive: -59.2%

Q: Which activity score does the source give for `CN(C)CCN(C(=O)c1ccc(N2C(=O)CCC2=O)cc1)c1nc2cc3c(cc2s1)OCCO3` here?
A: active: -75.2%

Q: For `Cc1cc(C)c(NC(=O)/C(C#N)=C/c2ccc(OCc3ccc(F)cc3)cc2)c(C)c1`, which activity score is on record?
A: inconclusive: -57.7%

Q: For `Cn1c(NC(=O)/C=C/c2ccccc2)cc(=O)n(C)c1=O`, which activity score is on record?
A: active: -253%

Q: For `O=C(N/N=C\c1c(O)ccc2ccccc12)c1ccc(O)cc1`, which activity score is on record?
A: inactive: 75.3%

Q: Which activity score does the source give for `c1ccc(SCCN2CCN(c3ccccc3)CC2)cc1` here?
A: inconclusive: -60.5%

Q: For `CC(C)(C)SCCNC(=O)CN(c1ccc(F)cc1)S(C)(=O)=O`, which activity score is on record?
A: inconclusive: -35.2%

Q: Which activity score does the source give for `Cc1ccc2nc3n(c(=O)c2c1)CCCCC3` here?
A: inconclusive: -49.3%

Q: For `CCOC(=O)C1=C(N)n2c(s/c(=C\c3ccco3)c2=O)=C(C(=O)OCC)C1c1ccco1` (centres undefined), which activity score is on record?
A: active: -78.4%

Q: For `Cn1ccc(NC(=O)Nc2ccc(Cl)cc2)n1`, which activity score is on record?
A: active: -80.2%

Q: With `COc1ccc(-c2nnc3sc(C4CCCCC4)nn23)cc1OC` as the molecule, how does the activity score read?
A: inactive: 65.3%

Q: Which activity score does the source give for `Clc1ccc(Cc2noc(Cc3ccccc3)n2)cc1Cl` here?
A: inconclusive: -58.9%

Q: With `CCOc1cc(C(=O)N/N=C/C(Br)=C/c2ccccc2)cc(OCC)c1OCC` as the molecule, how does the activity score read?
A: inactive: 104%

Q: Which activity score does the source give for `N=c1c(S(=O)(=O)c2ccc(Br)cc2)cc2c(=O)n3ccccc3nc2n1C1CCCC1` here?
A: inactive: 49.9%

Q: With `CCc1nnc(NC(=O)c2ccc(Cl)nc2)s1` as the molecule, how does the activity score read?
A: inconclusive: -49.9%

Q: With `C/C(CC(=O)Nc1ccc(OCc2ccccc2)cc1)=N\NC(=O)C(=O)Nc1cccc(C)c1` as the molecule, how does the activity score read?
A: inconclusive: -45%

Q: For `Cc1ccc(NC(=O)Nc2ccc3c(c2)CCC3)cc1C`, which activity score is on record?
A: inconclusive: -50.6%

Q: For `CCOC(=O)c1sc(NC(=O)Nc2ccc(F)cc2)nc1C`, which activity score is on record?
A: inconclusive: -60.9%

Q: For `CCN(CC)c1ccc2c(cc1=O)[C@@H](NC)CCc1cc(OC)c(OC)c(OC)c1-2`, which activity score is on record?
A: inactive: 107%

Q: For `Cc1csc(NC(=O)c2ccc(C)c([N+](=O)[O-])c2)n1`, which activity score is on record?
A: inconclusive: -39.5%

Q: Which activity score does the source give for `CSc1nc(-c2ccccc2)nc(C(Cl)Cl)n1` here?
A: inactive: 114%

Q: Which activity score does the source give for `CCOc1ccc(NCC(=O)c2ccc(C)cc2)cc1` here?
A: inconclusive: -53.3%

Q: With `CS(=O)(=O)N1CCc2cc(C(=O)Nc3ccccc3Cl)ccc21` as the molecule, how does the activity score read?
A: active: -95.6%

Q: With `COc1ccc(C(=O)/C=C/C(=O)N(CC(=O)NC2CCCCC2)Cc2cccs2)c(O)c1` as the molecule, how does the activity score read?
A: inactive: 70.6%

Q: For `Cc1ccc(C(=O)Cn2nnc(-c3ccccc3)n2)cc1`, which activity score is on record?
A: inconclusive: -46.6%

Q: With `CCOC(=O)c1c(SCC(=O)Nc2nccs2)nc(C)c(C)c1C` as the molecule, how does the activity score read?
A: active: -67.7%

Q: With `CCc1cc2c(SCC(=O)c3ccc(Cl)s3)ncnc2s1` as the molecule, how does the activity score read?
A: inconclusive: -42.8%

Q: With `CS(=O)(=O)c1cccc(C(=O)Nc2cccc(-c3nc4ccccc4[nH]3)c2)c1` as the molecule, how does the activity score read?
A: inconclusive: -52.6%
